Variants at the background level are over-represented here.
B1: TPR 5TU (parent)
chain: GGAUCUUCUCGAUCUAACAAAAAAGACAAAUCUGCCACAAAGCUUGAGAGCAUCUUCGGAUGCAGAGGCGGCAGCCUUCGGUGGCGCGAUAGCGCCAACGUUCUCAACUAUGACACGCAAAACGCGUGCUCCGUUGAAUGGAGUUUAUCAUG

Variants of: B1
Assay: polymerase ribozyme fitness, log enrichment relative to wild type (log ratio); higher = more active; in vitro selection for triplet polymerase activity
Outline: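 Input and output libraries were sequenced on Illumina after a single in vitro selection round, run in triplicate on PCR-built, transcribed mutant libraries of each subunit of a heterodimeric triplet polymerase ribozyme. Selection annealed libraries to a biotinylated primer, the partner subunit and triplets, incubated them frozen at −7 °C, then gel-excised extended constructs for streptavidin-bead capture and RT-PCR. Genotypes with ≥10 input reads and ≥1 read per output were kept. Fitness is the logarithm, taken in base 2, of genotype enrichment divided by wild-type enrichment, using inverse-variance-weighted replicate averages.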

A20G A30U C54U U56A G86A and A20G A30U C95G C108A G140A G141C cannot be ordered by “polymerase ribozyme fitness (log ratio)” value: no more than -4.2 for the first, no more than -4.2 for the second.

First: A20G A30U C95U
Second: A20G A47C G48C G50C U56C C87A C95G U139A G141A
The “polymerase ribozyme fitness (log ratio)” value of the first is higher: -3.5 for the first, -4.1 for the second.

A20G A49C C54G C57U G84A U104C G136C and A20G A52U C85A A91G C99G G117U U148A cannot be ordered by “polymerase ribozyme fitness (log ratio)” value: no more than -4.2 for the first, no more than -4.2 for the second.

A20G A73C A107C C116G U134C and A20G A73G G84A G141A U148A cannot be ordered by “polymerase ribozyme fitness (log ratio)” value: no more than -4.2 for the first, no more than -4.2 for the second.

A20G A107U C125U U151G and A20G C27G G67C U78G A89U C93G G124A U151G cannot be ordered by “polymerase ribozyme fitness (log ratio)” value: no more than -4.2 for the first, no more than -4.2 for the second.

A20G C32U C54G G126A U127G and A20G C35A G50A G62U C96A cannot be ordered by “polymerase ribozyme fitness (log ratio)” value: no more than -4.2 for the first, no more than -4.2 for the second.

A20G C35G A89U A97C G143C and A20G C43U G62U A91G cannot be ordered by “polymerase ribozyme fitness (log ratio)” value: no more than -4.2 for the first, no more than -4.2 for the second.

Going from A20G C54A G74C G86A C87U U146C to A20G C57A C69A C76U C96U, the “polymerase ribozyme fitness (log ratio)” value rises from no more than -4.2 to -1.94.

Compared with A20G C63A G74A C93A, A20G C69U G84C G126C G136A is higher in “polymerase ribozyme fitness (log ratio)” value: no more than -4.2 for the first, -1.72 for the second.

A20G C75A G84A G100A and A20G C87A U144A cannot be ordered by “polymerase ribozyme fitness (log ratio)” value: no more than -4.2 for the first, no more than -4.2 for the second.

A20G C87U A91U and A20G C93A C132G U134G U148G cannot be ordered by “polymerase ribozyme fitness (log ratio)” value: no more than -4.2 for the first, no more than -4.2 for the second.

A20G G25A A40U A47G G48C C85A A142G and A20G G25A A49G C54U C76U G84A A122U U145G cannot be ordered by “polymerase ribozyme fitness (log ratio)” value: no more than -4.2 for the first, no more than -4.2 for the second.

A20G G42C G84A C149A and A20G G46C A52G C87G G140U cannot be ordered by “polymerase ribozyme fitness (log ratio)” value: no more than -4.2 for the first, no more than -4.2 for the second.

A20G G71U A89G U144G U145G and A20G G74A G84U G126C cannot be ordered by “polymerase ribozyme fitness (log ratio)” value: no more than -4.2 for the first, no more than -4.2 for the second.

A20G G80C C103A G143A and A20G G83C G112A U134C cannot be ordered by “polymerase ribozyme fitness (log ratio)” value: no more than -4.2 for the first, no more than -4.2 for the second.

A20G U45A G50A C87U G94A and A20G U45A U53A G71C C95G cannot be ordered by “polymerase ribozyme fitness (log ratio)” value: no more than -4.2 for the first, no more than -4.2 for the second.

A20G U53A C76A G86U G88A and A20G U55A G70A U78A C79G U135G cannot be ordered by “polymerase ribozyme fitness (log ratio)” value: no more than -4.2 for the first, no more than -4.2 for the second.

A20G U102G A107U C116U A142U and A20U A21C A60C C72A G141U cannot be ordered by “polymerase ribozyme fitness (log ratio)” value: no more than -4.2 for the first, no more than -4.2 for the second.

A20U A21G A37U C43A A52G G70C G86A A97C A98U and A20U A21U A52G A64U C96A U139C cannot be ordered by “polymerase ribozyme fitness (log ratio)” value: no more than -4.2 for the first, no more than -4.2 for the second.

A20U A22C G68C U77A U82G C93U U139C and A20U A22C U82G G86U U101G C103G G143U cannot be ordered by “polymerase ribozyme fitness (log ratio)” value: no more than -4.2 for the first, no more than -4.2 for the second.

A20U A22U C54A G80A U90G A113U C123G U135A and A20U A22U C93U G143U cannot be ordered by “polymerase ribozyme fitness (log ratio)” value: no more than -4.2 for the first, no more than -4.2 for the second.

A20U A23C C35U C75U C103G G136A and A20U A23G G50U G86A A110C C129G G140A cannot be ordered by “polymerase ribozyme fitness (log ratio)” value: no more than -4.2 for the first, no more than -4.2 for the second.

A20U A23U A24U C51U A60G C85G and A20U A24G A41C G42U C96A C103A A106U cannot be ordered by “polymerase ribozyme fitness (log ratio)” value: no more than -4.2 for the first, no more than -4.2 for the second.

A20U A24G U55G G86C G94A G140A and A20U A26C G50U C54A C87G C105A G140U cannot be ordered by “polymerase ribozyme fitness (log ratio)” value: no more than -4.2 for the first, no more than -4.2 for the second.

A20U A26U C36G G50A C95G C123A G143U and A20U A26U C63A U102A U109C cannot be ordered by “polymerase ribozyme fitness (log ratio)” value: no more than -4.2 for the first, no more than -4.2 for the second.

A20U A26U U53A U78G U90G A91U C129U A150G and A20U A28C G83U C87A C99G G140A cannot be ordered by “polymerase ribozyme fitness (log ratio)” value: no more than -4.2 for the first, no more than -4.2 for the second.

A20U A28G G50C C57U G80A C96U A97C G128C A137C and A20U A28G G58C U77C cannot be ordered by “polymerase ribozyme fitness (log ratio)” value: no more than -4.2 for the first, no more than -4.2 for the second.

A20U A28U A47G A89U U148A and A20U A28U C96U cannot be ordered by “polymerase ribozyme fitness (log ratio)” value: no more than -4.2 for the first, no more than -4.2 for the second.

A20U A28U G65C G88C U104G and A20U A29C A30G C54A G67C G80U C93U G94A A97C C99U cannot be ordered by “polymerase ribozyme fitness (log ratio)” value: no more than -4.2 for the first, no more than -4.2 for the second.

A20U A30U A37U C51G C93U C95A C96G C116G and A20U A30U C76U A89G A91C A122G U134G cannot be ordered by “polymerase ribozyme fitness (log ratio)” value: no more than -4.2 for the first, no more than -4.2 for the second.

First: A20U A40C
Second: A20U A40C C43A C96G A119C
The “polymerase ribozyme fitness (log ratio)” value of the first is higher: -0.959 for the first, no more than -4.2 for the second.

First: A20U A40U C85G A98U C114A
Second: A20U A40U U56A C96A G141C
The “polymerase ribozyme fitness (log ratio)” value of the first is lower: no more than -4.2 for the first, -2.73 for the second.

A20U A41C G71C G86C U130A and A20U A41U U55A A66U G84A C116A cannot be ordered by “polymerase ribozyme fitness (log ratio)” value: no more than -4.2 for the first, no more than -4.2 for the second.

A20U A47G A66C G74A A89G C93A and A20U A47U C54U U56A A66G A73U G92U G100A U145C A147C cannot be ordered by “polymerase ribozyme fitness (log ratio)” value: no more than -4.2 for the first, no more than -4.2 for the second.

A20U A47U C87A and A20U A49G C85U A110G U148A cannot be ordered by “polymerase ribozyme fitness (log ratio)” value: no more than -4.2 for the first, no more than -4.2 for the second.

A20U A49U U61A C69U A89C C93U C108U A113U A147C and A20U A60G G67A U78C C93U C95G G124A U148C cannot be ordered by “polymerase ribozyme fitness (log ratio)” value: no more than -4.2 for the first, no more than -4.2 for the second.

A20U A73G C79A C96G and A20U C27A U31G A40G G42U C96G A97G cannot be ordered by “polymerase ribozyme fitness (log ratio)” value: no more than -4.2 for the first, no more than -4.2 for the second.

A20U C27G G46U G92U A138C G143U and A20U C32G U56G G81A C93U A107G C131U C132G U135G A147G cannot be ordered by “polymerase ribozyme fitness (log ratio)” value: no more than -4.2 for the first, no more than -4.2 for the second.

A20U C35U G59C C75U C87U C99U A137U A138U and A20U C38U A39C C57U C87A cannot be ordered by “polymerase ribozyme fitness (log ratio)” value: no more than -4.2 for the first, no more than -4.2 for the second.

A20U C38U C87U A115U U135G C149A and A20U C43A G70C G83A U148A cannot be ordered by “polymerase ribozyme fitness (log ratio)” value: no more than -4.2 for the first, no more than -4.2 for the second.

Going from A20U C43U C69G C85A to A20U C54A A106C, the “polymerase ribozyme fitness (log ratio)” value rises from no more than -4.2 to -3.99.

In the case of A20U C54A G58U G94U A119U A120G A142G, the “polymerase ribozyme fitness (log ratio)” value is reported as no more than -4.2.

Reference: the RNAGym collection of RNA variant scans (doi:10.1073/pnas.2313332121)
